Laboratory results reported in the supplement of paper PMC3334620.
Whole data set: some 33,000 sequences, median “E-score (-0.5 to 0.5)” near -0.017, cut for the highest 2% near 0.3. The list shows a part of the results.

Target: T1, Sut1 (UniProt P53032)
T1 sequence: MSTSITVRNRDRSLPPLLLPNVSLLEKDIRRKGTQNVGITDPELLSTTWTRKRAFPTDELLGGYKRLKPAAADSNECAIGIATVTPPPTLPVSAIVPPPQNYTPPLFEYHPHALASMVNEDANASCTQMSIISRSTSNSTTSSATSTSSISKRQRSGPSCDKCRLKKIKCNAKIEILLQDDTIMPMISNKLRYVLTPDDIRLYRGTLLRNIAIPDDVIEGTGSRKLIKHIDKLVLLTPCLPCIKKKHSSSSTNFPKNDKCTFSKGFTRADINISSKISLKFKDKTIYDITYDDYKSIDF
Test: PBM E-score (8-mer binding enrichment) (E-score (-0.5 to 0.5)); higher = stronger / more preferred TF binding; most listed sequences are background and not binding sites
Settings: protein concentration: 200 nM; construct: GST-full length
Procedure: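 Universal 'all 10-mer' protein binding microarrays (Agilent AMADID 015681) probed with GST-tagged S. cerevisiae TFs (full-length or DBD) made by in vitro transcription/translation (PURExpress), about 100-200 nM. Bound TF was detected with fluorescent anti-GST. Each ungapped 8-mer (which stands for itself and its reverse complement) is scored by the PBM enrichment score (E-score), a modified Wilcoxon-Mann-Whitney statistic from -0.5 to +0.5, computed with the Universal PBM Analysis Suite. Scale: above 0.35 generally sequence-specific binding.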

Sequence	PBM E-score
AATGCAGA	0.0221
CGTTCGAA	0.121
GCTGATAA	0.11
GGACTACA	0.227
TAAAGCGA	0.141
ATGGGTAC	-0.0584
CACGATGC	-0.209
AGTTTAGG	0.0512
AACCATCT	-0.00764
CTTCGTCC	-0.108
GAGCGGTA	-0.144
ACAAAAGA	0.192
AGTCCGCA	0.441
CGTCCGTC	-0.154
TCTTGTCA	0.0923
GATCACTA	0.0437
AACGTCCG	0.0822
TAAATTTA	0.292
CGATAATA	0.263
GCTACCTA	-0.00803
GTTCCCTA	-0.238
ACTACGAA	0.0609
GTGATGCA	0.0515
TACGCGTA	-0.0808
GTGGAGAA	-0.0819

Sequence	PBM E-score
CCTTCGCA	-0.178
CCTGGAAA	-0.099
CGGGTTGA	-0.223
AAACGGCC	-0.00943
CTCAGCAC	-0.359
CACCAGCA	-0.147
ACGCAACA	0.0423
GATCACCA	0.0174
CCGGGGTC	0.149
ATCAAGGC	-0.0554
ATGGCTGG	-0.179
ACATCCGT	0.107
AGCCGTAC	-0.0187
CGAGCATC	0.103
AGAACGAA	0.146
ACAAACAG	0.118
TCTGGGCA	-0.0108
AGCCGACT	-0.0411
CCCGGCCA	-0.106
CGCGCCGA	0.013
TGAAGACA	0.0524
GATAAGAA	0.203
GCTGCGCC	-0.0869
CAACTAAG	0.114
CAAGTCTC	-0.207

Sequence	PBM E-score
CAGCTGCA	-0.0541
AGCCCTTC	-0.212
TTACGTAA	-0.0108
ACGTCCAC	-0.188
AGCCACCC	-0.217
ACCGAAAT	0.157
AAAGGTAT	0.141
AGCAGTCG	-0.203
AGCATAAA	0.258
GAACCAAA	0.0874
CGGATACC	-0.0487
ACCTAAGC	-0.0154
CGTTCTCC	0.133
AGATCAGA	0.0769
AGTAGGAC	-0.00278
ACTGATAG	-0.0544
ACGTTAAG	0.0602
TGCCACCA	-0.245
AGAAGCAC	-0.139
ATCTAACG	0.0356
GGTGCTCA	-0.0548
CGGACCGC	0.124
AATCTAGA	0.0755
AAGACGTC	-0.135
CCTATGAG	-0.111

Sequence	PBM E-score
AAAAACGC	0.198
AGAGCGAC	-0.17
AGATGACG	-0.117
AGCTAGTC	0.146
CATCTCGC	-0.13
AACTGTCA	0.0244
ACCTGCAG	-0.245
AGTTGCGA	0.133
CCCTCGAG	-0.261
ACCCTTGA	-0.17
ACAGTGTA	-0.0288
ACAATGCG	0.125
GAGTTGCC	0.0547
TAAAGTGA	0.128
ACTCCAAG	-0.0437
ACGGTAAA	0.0293
GTCTAGCA	0.0494
TTTGCAAA	0.0686
TCACGTCA	-0.0875
GAAGTGCA	-0.0894
AGTGGGGC	-0.424
CATATTTA	0.243
GCCCTAGC	-0.208
GCGGTCAA	-0.186
CCGCGGTC	0.0819

Sequence	PBM E-score
AAGATAAT	0.204
AGCCAGAT	-0.112
GGAACTAA	0.194
CTGACGGC	-0.214
AATTACGC	-0.0475
ATCACAGA	0.00232
AGGCAAAA	0.134
GTCGACAA	-0.236
TATACAAA	0.237
ACAAGTTC	0.0329
CCAATGAG	-0.159
AGCTGTCG	-0.158
AACGGACC	0.191
ACCGAGAG	0.0245
GCCGCTTA	-0.105
GGGCGTGA	-0.182
CCGAAGAG	-0.0171
TAATCCAA	0.0921
CCCGAGTA	0.0788
CCCTCTCA	-0.299
ACTCGAAG	-0.12
CCCCAAAC	-0.111
ATATGTCC	0.196
ACCCCCAT	-0.251
CCGAACCC	0.164

Sequence	PBM E-score
CGTGGGAG	-0.0674
CCGCACTA	0.121
CTTCCTAA	0.118
CGCTCGCA	0.0517
AAAACAGA	0.0797
ATACTTTC	0.191
GCCACGAA	-0.199
ACTCTGTC	-0.176
CTTGATAA	0.206
GTCAGCAC	-0.0173
TACTATCA	0.173
GGGGCAGA	-0.195
GTTTCGCA	-0.062
CATATACC	-0.124
ACCCGCGT	-0.233
AATCACTC	-0.0706
CATTCTAA	0.11
ATCAGAGA	0.0328
ACGCACCA	-0.269
ACTAAGCA	-0.0381
CCTGCTGC	-0.0998
ACTGAGTG	0.123
GAAGTGTC	-0.00653
AGGTTTCA	0.0578
ACGGGAAC	-0.12

Sequence	PBM E-score
AGATAGCA	0.147
AGCGTTAA	0.153
ACGTGTTA	-0.0186
AGAAGGAA	-0.183
ATTGTTCA	0.0247
GACTTTAC	0.157
CTAGGCGA	-0.16
CTACATGA	-0.173
CTGTTTGC	-0.145
TAGCGCGA	0.057
AGGCCACG	-0.142
CGATTGAA	0.126
CGATAGTA	-0.0234
GAACAAAC	0.254
AGTCGTGG	-0.124
ATACACAC	-0.0228
GGAATCGA	0.0454
AACATCAC	0.0298
TTACAGAA	0.00668
GTATCACA	0.0305
CACGGTTA	0.0314
CAAATTCC	0.197
